Source: article PMC4098744, “Systematic family‐wide analysis of sodium bicarbonate cotransporter NBCn1/SLC4A7 interactions with PDZ scaffold proteins” (Physiological Reports, 2014)
These are yes or no findings as the source states them, for the method shown. In cells and extracts the contact can be indirect. Some results given as binding are weak or reduced against the parent protein; the word gives no strength. Sequences can lack the tags named with a protein.

Columns and labels:
Test in all cases: pull-down; GST/syntrophin γ2 constructs on Glutathione-Sepharose beads incubated with membrane lysates of rat brains, 4°C, 4 h, PBS with 0.5% Nonidet P-40; blot with NBCn1 antibody; only the target purified
GST/Syn‐ΔPDZ (human) = target: T1, GST/Syn‐ΔPDZ (human) (UniProt Q9NY99)
T1 sequence: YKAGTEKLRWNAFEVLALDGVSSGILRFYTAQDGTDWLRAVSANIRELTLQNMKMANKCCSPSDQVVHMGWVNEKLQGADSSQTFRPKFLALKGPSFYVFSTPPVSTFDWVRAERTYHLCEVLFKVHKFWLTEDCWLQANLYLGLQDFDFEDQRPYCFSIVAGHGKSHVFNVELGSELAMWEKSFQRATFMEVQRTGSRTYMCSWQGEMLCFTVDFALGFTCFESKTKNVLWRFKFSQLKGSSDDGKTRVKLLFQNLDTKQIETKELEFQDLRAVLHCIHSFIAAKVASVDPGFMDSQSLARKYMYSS

GST/Syn‐full (human) = target: T2, GST/Syn‐full (human) (UniProt Q9NY99)
T2 sequence: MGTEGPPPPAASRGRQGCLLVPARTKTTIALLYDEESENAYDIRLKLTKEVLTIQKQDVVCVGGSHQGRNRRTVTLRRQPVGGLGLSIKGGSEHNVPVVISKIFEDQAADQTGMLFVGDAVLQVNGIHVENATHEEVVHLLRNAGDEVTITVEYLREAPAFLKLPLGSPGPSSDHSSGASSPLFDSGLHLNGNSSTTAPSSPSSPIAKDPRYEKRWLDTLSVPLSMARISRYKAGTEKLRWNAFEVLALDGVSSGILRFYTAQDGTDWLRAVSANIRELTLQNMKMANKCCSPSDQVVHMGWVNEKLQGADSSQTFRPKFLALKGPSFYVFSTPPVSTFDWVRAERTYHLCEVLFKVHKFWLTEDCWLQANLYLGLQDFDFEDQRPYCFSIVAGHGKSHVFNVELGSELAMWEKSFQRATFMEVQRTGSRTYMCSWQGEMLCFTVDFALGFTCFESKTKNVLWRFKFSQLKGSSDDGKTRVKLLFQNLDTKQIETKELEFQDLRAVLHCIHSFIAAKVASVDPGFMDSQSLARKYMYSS

GST/Syn‐PDZ (human) = target: T3, GST/Syn‐PDZ (human) (UniProt Q9NY99)
T3 sequence: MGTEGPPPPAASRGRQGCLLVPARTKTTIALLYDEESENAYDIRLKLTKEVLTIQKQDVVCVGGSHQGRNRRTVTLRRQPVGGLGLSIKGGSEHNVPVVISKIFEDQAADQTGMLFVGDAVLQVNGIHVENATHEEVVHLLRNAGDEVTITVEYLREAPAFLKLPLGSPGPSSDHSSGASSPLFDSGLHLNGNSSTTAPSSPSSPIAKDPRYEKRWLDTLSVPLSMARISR

- binding (GST/Syn‐ΔPDZ (human)): no binding
- binding (GST/Syn‐full (human)): binds
- binding (GST/Syn‐PDZ (human)): binds
B1: NBCn1 in membrane lysates of rat brains (protein, UniProt Q9R1N3 1-1218)
chain: MEADGAGEQMRPLLTRGPDEEAVVDLGKTSSTVNTKFEKEELESHRAVYVGVHVPFSKESRRRHRHRGHKHHHRRRKDKDSDKEDGRESPSYDTPSQRVQFILGTEDDDEEHIPHDLFTEMDELCYRDGEEYEWKETARWLKFEEDVEDGGDRWSKPYVATLSLHSLFELRSCILNGTVMLDMRASTLDEIADMVLDNMIASGQLDDSIRENVREALLKRHHHQNEKRFTSRIPLVRSFADIGKKHSDPHLLERNGEGLSASRHSLRTGLSASNLSLRGESPLSLLLSHLLPSSRAGTPAGSRCTTPVPTPQNSPPSSPSLSRLTSRSSQQTQPQAPEVLVSPDRDDIPRVVIHPPEEDIEALKGQEQKNEENTDFTPGILASPQSAPGNLDSSKSGEVKGNGSGGSRENSTVDFSKVDMNFMRKIPTGAEASNVLVGEVDFLERPIIAFVRLAPAVLLSGLTEVPVPTRFLFLLLGPAGKAPQYHEIGRSIATLMTDEIFHDVAYKAKDRNDLLSGIDEFLDQVTVLPPGEWDPSIRIEPPKSVPSQEKRKIPAFPNGSAPVSADPPKEADHHAGPELQRTGRLFGGLILDIKRKAPFFLSDFKDALSLQCLASILFLYCACMSPVITFGGLLGEATEGRISAIESLFGASLTGIAYSLFAGQPLTILGSTGPVLVFEKILFKFCRDYHLSYLSLRTSIGLWTSFLCIVLVATDASSLVCYITRFTEEAFAALICIIFIYEALEKLFHLGEIYAFNMHNNLDALTSYTCVCAEPSNPSNETVELWERKNVTAASISWANLTVSECKTFHGMFVGSACGPHGPYVPDVLFWCVVLFFTTFFLSSFLKQFKTKRYFPTKVRSTISDFAVFLTIVIMVAIDYLVGIPSPKLHVPEKFEPTDPSRGWIISPLGDNPWWTLLIAAVPALLCTILIFMDQQITAVIINRKEHKLKKGAGYHLDLLMVAVMLGVCSIMGLPWFVAATVLSISHVNSLKVESECSAPGEQPKFLGIREQRVTGLMIFILMGLSVFMTSVLKFIPMPVLYGVFLYMGVSSLKGIQFFDRIKLFGMPAKHQPDLIYLRYVPLWKVHVFTVVQLTCLVLLWVIKASAAAVVFPMMVLALVFVRKLMDLCFTKRELSWLDDLMPESKKKKEDDKKKKEKEEAERMLQGDGDTVHLPFERGSLLQIPVKTLKYSPEKPVSVTINFEDEPSKKYMDAETSL
